The list shows a part of the results. Cleavage of a single-stranded DNA pool by Rep nickase domains was read by sequencing for 1 h at 37 °C with 3 µM enzyme; only the middle of the 90-letter strands is printed. Values are log2 of uncut reads against the no-enzyme pool; uncut sequences lie near 0, cut ones below; no hit call is given. Shares of all reads are compared; uncut strands gain when others are lost, and binding without cutting may add a little.
Key:
Assay in all cases: uncleaved DNA left, log2 of reads against the no-enzyme library (log2 ratio); higher = less cleavage (more negative = more Rep cleavage of the k-mer); sequences stand for … in CTCGTCCG…ACCGGAGA
[1] = test system: T1, Rep nickase domain of Muscovy duck circovirus
T1 sequence (Rep 1-111, printed without the tag): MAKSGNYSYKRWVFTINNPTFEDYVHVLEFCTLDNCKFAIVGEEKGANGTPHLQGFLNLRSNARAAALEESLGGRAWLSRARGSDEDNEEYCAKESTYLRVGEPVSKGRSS
Description: (§1)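 A pool of 90-nt single-stranded DNAs with seven random bases just before the constant AC of the nick site (name = the seven bases) was cut by 3 µM recombinant His6-SUMO-tagged Rep nickase domain (300 nM DNA, 50 mM HEPES pH 8.0, 50 mM NaCl, 1 mM MnCl2, 1 h, 37 °C, three replicates). Uncut DNA was amplified and sequenced.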

[2] = test system: T2, Rep nickase domain of banana bunchy top virus
T2 sequence (Rep 1-94, printed without the tag): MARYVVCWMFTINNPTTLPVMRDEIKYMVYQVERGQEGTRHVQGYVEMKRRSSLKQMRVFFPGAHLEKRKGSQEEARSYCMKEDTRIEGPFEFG
Description: as §1

[3] = test system: T3, Rep nickase domain of cabbage leaf curl virus
T3 sequence (Rep 1-116, printed without the tag): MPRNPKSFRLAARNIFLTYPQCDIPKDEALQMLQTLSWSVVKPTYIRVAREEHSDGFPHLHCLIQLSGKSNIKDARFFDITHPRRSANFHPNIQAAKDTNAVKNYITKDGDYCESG
Description: as §1

[4] = test system: T4, Rep nickase domain of chickpea chlorotic dwarf virus
T4 sequence (Rep 1-124, printed without the tag): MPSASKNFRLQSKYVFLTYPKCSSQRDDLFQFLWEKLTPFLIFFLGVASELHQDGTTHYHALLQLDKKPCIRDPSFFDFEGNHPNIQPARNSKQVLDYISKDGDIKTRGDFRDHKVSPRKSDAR
Description: as §1

[5] = test system: T5, Rep nickase domain of faba bean necrotic yellows virus
T5 sequence (Rep 1-98, printed without the tag): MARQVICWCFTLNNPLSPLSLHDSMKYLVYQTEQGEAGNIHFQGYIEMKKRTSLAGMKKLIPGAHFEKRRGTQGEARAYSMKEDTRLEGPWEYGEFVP
Description: as §1

[6] = test system: T6, Rep nickase domain of maize striate mosaic virus
T6 sequence (Rep 1-117, printed without the tag): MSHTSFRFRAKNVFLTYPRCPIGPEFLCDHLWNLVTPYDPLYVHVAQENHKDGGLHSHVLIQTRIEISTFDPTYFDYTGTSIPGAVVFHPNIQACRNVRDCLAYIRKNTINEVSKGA
Description: as §1

[7] = test system: T7, Rep nickase domain of porcine circovirus 2
T7 sequence (Rep 2-116, printed without the tag): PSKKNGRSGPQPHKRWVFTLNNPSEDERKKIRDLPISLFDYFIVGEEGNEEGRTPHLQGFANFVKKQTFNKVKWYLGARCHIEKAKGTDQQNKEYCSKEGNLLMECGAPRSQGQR
Description: as §1

[8] = test system: T8, Rep nickase domain of tomato yellow leaf curl virus
T8 sequence (Rep 1-136, printed without the tag): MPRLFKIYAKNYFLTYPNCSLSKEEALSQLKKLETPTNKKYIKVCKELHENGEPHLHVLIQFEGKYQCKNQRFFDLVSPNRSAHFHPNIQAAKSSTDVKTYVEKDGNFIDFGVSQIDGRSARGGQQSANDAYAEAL
Description: as §1

[9] = test system: T9, Rep nickase domain of wheat dwarf virus
T9 sequence (Rep 1-137, printed without the tag): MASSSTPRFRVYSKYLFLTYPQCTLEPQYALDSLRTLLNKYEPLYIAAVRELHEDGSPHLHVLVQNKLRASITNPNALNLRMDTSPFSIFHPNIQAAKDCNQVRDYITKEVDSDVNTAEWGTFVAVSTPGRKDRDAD
Description: as §1

Sequence | uncleaved DNA left (log2) [1] | uncleaved DNA left (log2) [2] | uncleaved DNA left (log2) [3] | uncleaved DNA left (log2) [4] | uncleaved DNA left (log2) [5] | uncleaved DNA left (log2) [6] | uncleaved DNA left (log2) [7] | uncleaved DNA left (log2) [8] | uncleaved DNA left (log2) [9]
TGCTTTT | -2.76 | -0.232 | -0.0169 | -1.91 | -0.174 | -0.561 | -3.25 | -0.0182 | -0.104
GCTGAGT | 0.0439 | -0.0823 | 0.037 | 0.25 | 0.0693 | 0.0814 | 0.148 | 0.00726 | -0.0154
GACACCT | -0.144 | -0.101 | -0.136 | -1.91 | -0.184 | 0.545 | -0.536 | -0.0547 | 0.0689
TTACGCC | -0.00671 | -0.0996 | -0.165 | -1.3 | -0.0242 | -0.826 | -0.138 | -0.0445 | -0.0929
ATTAGTA | -0.0174 | -0.0674 | -0.152 | -1.34 | 0.0155 | -0.747 | -0.254 | 0.00837 | -0.0454
TTGTCAA | 0.0354 | 0.0582 | 0.431 | 0.902 | 0.118 | 1.14 | 0.12 | 0.105 | 0.14
TTAAAAA | 0.07 | 0.0712 | 0.152 | 0.00478 | 0.0405 | -0.206 | 0.0108 | 0.0152 | 0.0267
TTACTTA | 0.156 | -0.105 | 0.0686 | -1.94 | 0.139 | 0.182 | -0.0671 | -0.11 | 0.00423
GGAGATC | -0.00247 | 0.0764 | 0.722 | 1.73 | 0.0587 | 2.11 | 0.154 | 0.0402 | 0.166
TATGCAC | 0.0739 | 0.0983 | -0.194 | -0.399 | 0.228 | -0.984 | 0.188 | 0.0542 | 0.00879
TTGTCTT | -2.82 | -1.17 | 0.0316 | -1.87 | -0.904 | -0.38 | -3.04 | 0.122 | -0.053
AGCTAAC | 0.0495 | 0.092 | -0.62 | -0.55 | 0.0502 | -0.214 | -0.0434 | 0.0121 | 0.0176
ACCATTT | 0.127 | 0.0363 | -0.478 | -1.97 | 0.0958 | -1.08 | 0.0677 | 0.186 | 0.126
ATTGTAT | 0.0897 | -0.0295 | 0.026 | -0.0899 | 0.084 | -0.154 | -0.448 | 0.114 | 0.0995
ATGGCAG | -0.0231 | 0.102 | -0.498 | -0.187 | 0.17 | -0.772 | 0.316 | 0.158 | 0.0339

Reference: the supplement of paper PMC7826260
